Reference: paper PMC6212790
The list shows a part of the results. At the low end of the ranking, values are background and their order means little.

biological target: T1, GST-Rok-C97-191 (UniProt O34857); test: protein binding microarray; details: Rok is a gene silencer of Bacillus subtilis; high values mean tight binding; most listed sequences are background and not binding sites; double strand, one strand shown;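 note: rank score from −0.5 (least bound) to 0.5 (best bound)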
T1 sequence: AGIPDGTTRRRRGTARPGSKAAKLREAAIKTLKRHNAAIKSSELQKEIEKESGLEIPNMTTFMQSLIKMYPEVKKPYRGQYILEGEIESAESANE

| Sequence | binding signal [E-score] |
| --- | --- |
| ATTGTGTA | 0.258 |
| GAAGTTCA | -0.0152 |
| AGATGACT | 0.0396 |
| CACGGAAC | -0.147 |
| ACGAGCGT | -0.0934 |
| CGTTCGTC | -0.214 |
| GACTCGAC | -0.137 |
| GGCTCACA | -0.177 |
| GCCATCAC | -0.257 |
| AGCGTAAT | 0.2 |
| ATGTAATA | 0.32 |
| CGCTTACA | -0.0304 |
| TCCAGACA | -0.188 |
| CGCCCCCC | -0.434 |
| ACGTGTGG | -0.0155 |
| CCCGGTAG | -0.134 |
| CACTTCCA | -0.0767 |
| AGGAGGTG | -0.177 |
| GGCGCCCA | -0.207 |
| GTCGGCTA | 0.011 |
| CACCAAGG | -0.286 |
| CCACCTAA | -0.0523 |
| AACCTAAA | 0.0757 |
| GCCAGAAC | -0.0329 |
| ATTCTTAA | 0.0601 |

| Sequence | binding signal [E-score] |
| --- | --- |
| CGAAGTAA | 0.0919 |
| TCTTTTCA | -0.046 |
| TATCTAGA | 0.159 |
| AGTAGTCG | 0.17 |
| AATCGACA | -0.0613 |
| AGGTGTAA | 0.217 |
| CAGCTGTC | 0.00473 |
| GATTCTAA | 0.086 |
| GACCGCGC | -0.263 |
| CACGGGTC | -0.133 |
| TGTCACAA | -0.0266 |
| CCCAGGGC | -0.207 |
| ACCTGAAT | 0.131 |
| CCCGCGCC | -0.255 |
| ACAGGGCT | -0.097 |
| AACTATGC | 0.179 |
| CGGTCCGA | -0.0983 |
| CGTCCATA | -0.238 |
| GGGGCGGA | -0.227 |
| CATGTCAC | -0.0201 |
| AGTCTGCA | -0.111 |
| CTCCAGGC | -0.285 |
| CAGCGGCA | -0.181 |
| CCCCTATA | -0.0508 |
| GCCCCGTA | -0.169 |

| Sequence | binding signal [E-score] |
| --- | --- |
| GGCATACA | 0.233 |
| GTCTTATA | 0.152 |
| ACTTCGCT | 0.104 |
| AGTCGCAT | -0.0688 |
| AGAAGAAC | 0.039 |
| ATGGCTTC | -0.163 |
| AACCGCCG | -0.18 |
| CGCAGGGA | -0.128 |
| AAGAGGAT | -0.139 |
| AAGAACTA | 0.241 |
| AATTCGGC | -0.0445 |
| ATTTAATG | 0.105 |
| AAACAACT | 0.174 |
| CAGAGACA | -0.153 |
| AAAACATC | 0.0819 |
| GCCCTCAA | -0.185 |
| GATCTAGA | 0.194 |
| GATCCTGA | -0.134 |
| ATCTTCAT | 0.204 |
| TCAGAGCA | -0.143 |
| GCCGTACA | -0.0375 |
| CCGACGCA | -0.212 |
| CTCATGCA | -0.182 |
| AAGCTGAC | -0.22 |
| CGTCCCCA | -0.225 |

| Sequence | binding signal [E-score] |
| --- | --- |
| AAGGTCTA | -0.133 |
| GTGCGCAA | -0.0525 |
| ATACATGG | 0.117 |
| AAACGTTA | 0.0818 |
| CCTAATCA | 0.011 |
| CCATCACA | -0.258 |
| GACAGCCC | -0.305 |
| GGTTTAAC | -0.0571 |
| CAGGGACG | -0.15 |
| GCTCTAGA | -0.233 |
| CCAACCTA | -0.0204 |
| AATCTTGT | -0.00621 |
| GCAGGTAA | -0.0453 |
| CAACATCA | -0.0082 |
| CATTCACA | -0.0242 |
| ACCCTCGA | 0.0492 |
| ATCTTAGC | 0.21 |
| CGGCGGCC | -0.283 |
| AGCGAATG | -0.0139 |
| AACTCTGA | 0.00111 |
| CGAAGGCC | -0.185 |
| CACTTCTA | 0.036 |
| CAGCTCTA | -0.068 |
| CACGCGAG | -0.0781 |
| TGGCTGAA | 0.00639 |

| Sequence | binding signal [E-score] |
| --- | --- |
| ACTAACAC | 0.0585 |
| CCTGTACG | -0.284 |
| ACAGAGCA | -0.126 |
| TAAATAAA | 0.162 |
| AGCTAACT | 0.142 |
| CGAGTTGC | 0.179 |
| CGCAGCCC | -0.273 |
| ACTGGCTA | -0.109 |
| CTGACTCC | -0.282 |
| ACTTATTC | 0.115 |
| GCCAACTA | 0.0359 |
| AAAATCCA | 0.235 |
| ATACGCCC | -0.139 |
| ATATGTAC | 0.309 |
| CAGGTACA | 0.0523 |
| CTGTTCTC | -0.067 |
| CCGTGCGA | -0.158 |
| TAACTAGA | 0.247 |
| GGATTGGA | -0.106 |
| CCCGGAGC | -0.106 |
| AAACCTAA | 0.129 |
| AACATCGC | -0.123 |
| CATTTCGG | 0.00988 |
| AGCCCTTG | -0.305 |
| GCTCGCCC | -0.379 |

| Sequence | binding signal [E-score] |
| --- | --- |
| CGGCGACG | -0.208 |
| CACCGGGG | -0.261 |
| CTATTATA | 0.329 |
| CAGATTGG | 0.0458 |
| AGTCCCGG | -0.13 |
| CACTAGTG | -0.0787 |
| ACGGGTCG | -0.226 |
| AACCTGGG | -0.221 |
| GTATTCGA | 0.15 |
| AACCCGTG | -0.252 |
| TCATGTCA | 0.0416 |
| ACACGTTC | 0.0185 |
| GCTTTTAA | -0.0273 |
| AATGTCGC | 0.0115 |
| GCACACCC | -0.244 |
| ATCATGCG | -0.315 |
| GAGTTTTA | 0.182 |
| GACAGGAA | -0.188 |
| AAGTAACA | 0.177 |
| CAGGACAC | -0.247 |
| CAGCTTAA | -0.0291 |
| AATGTAAA | 0.329 |
| ACAGCTGG | -0.00567 |
| CCTGCCTA | -0.083 |
| CGACTGGC | -0.264 |

| Sequence | binding signal [E-score] |
| --- | --- |
| CACGCGCG | -0.176 |
| ATTGTTTC | 0.13 |
| CCCTACAA | -0.0562 |
| GGGCAACA | -0.277 |
| CGGTCGTC | -0.124 |
| CGTATAAG | 0.061 |
| AATGGGCA | -0.108 |
| ACGCGCAG | -0.205 |
| CATTTAAC | 0.0527 |
| CCCCCATC | -0.251 |
| ATCAGTCG | -0.0256 |
| GCTAGGTA | 0.145 |
| CTCGTCGC | -0.108 |
| CGGTGAAA | -0.0196 |
| CGGCTTAA | -0.114 |
| ACCGGCGG | -0.145 |
| GCACTTCA | -0.266 |
| CATACGAC | 0.00215 |
| CTTGTTGA | -0.202 |
| AATCTCCC | -0.0734 |
| CGCGTCTC | -0.196 |
| CTGTGAAC | -0.00443 |
